This note sets out measurements from ChEMBL document CHEMBL4888484, “Replenishing the malaria drug discovery pipeline: Screening and hit evaluation of the MMV Hit Generation Library 1 (HGL1) against asexual blood stage Plasmodium falciparum ,using a nano luciferase reporter read-out” (2022).

By % Inhibition is commonly meant the relative decrease from the control value, in per cent.

Out of some 150,000 compounds screened, about 540 (0.36%) showed an effect of 50% or more. This is one part of the list.

The test system of this test is Plasmodium falciparum. Kind of test: Primary screen in NF54 nanoGlo assay, in single point, at 2uM, 72h; a lower Z score goes with more inhibition. The conditions noted are these: timepoint 72 hour. It counts as functional, Erythrocyte.
Turning to `Cn1cc(S(=O)(=O)N2C3CCC2CC(Oc2cccnc2)C3)cn1` (configuration not stated), the “% Inhibition” value is reported as -8% and the Z score is reported as 1.21.

For the compound `O=C(NC1CC[C@H]2CN(Cc3ccccc3)C[C@H]2C1)c1cccnn1` (some centres not stated), the “% Inhibition” value was -8% and the Z score came out at 1.01.

Turning to `CC1CC1C(=O)Nc1nc2ccccc2n1-c1ccn(C)n1` (configuration not stated), the “% Inhibition” value is recorded as -11% and the Z score is 1.42.

For the compound `O=C(CN(Cc1ccccc1)C1CC1)Nc1ccc(N2CCOCC2)cc1`, the “% Inhibition” value is given as 8% and the Z score is -1.13.

As to `Cc1nc(CNC(=O)Nc2nc3c(s2)CCC3(C)C)no1`, the “% Inhibition” value is given as -6% and the Z score is listed as 0.82.

In the case of `CC1(C)CCC[C@@H]1NC(=O)c1cc(Cl)c2c(c1)OCCCO2`, the “% Inhibition” value is recorded as -6% and the Z score is 0.95.

For `O=C(c1ccccc1)N1CCCCC[C@H]1c1nc(C2CC2)no1`, the “% Inhibition” value is -4% and the Z score stood at 0.74.

Regarding `Cc1ccc(NC(=O)c2c(C)sc3ncnc(N4CCCCCC4)c23)c(C)c1`, the “% Inhibition” value is recorded as -9% and the Z score stood at 0.99.

Regarding `COc1ccc(-c2nc3n(n2)C2(CCCCC2)[C@@H]2CCCC[C@@H]2N3C(=O)c2ccc(F)cc2)cc1`, the “% Inhibition” value is recorded as -27% and the Z score is recorded as 2.36.

As to `CCOC(=O)c1cnc2c(F)c(F)ccc2c1OCc1ncnn1C`, the “% Inhibition” value is -10% and the Z score is 1.83.

For the compound `CCn1c(CN2CCC[C@H]2c2cnn(C)c2)nc2cc(F)ccc21`, the “% Inhibition” value was -1% and the Z score worked out at 0.1.

For the compound `Cc1cc(CCNC(=O)N2CC[C@H](CN3CCCC3)C2)cc(C)c1O`, the “% Inhibition” value was -1% and the Z score is 0.11.

In the case of `CCN=C(NCCc1nc(C(C)C)no1)N1CCN(C2CC2)C(=O)C1`, the “% Inhibition” value was -13% and the Z score was determined as 1.13.

Regarding `COc1ccccc1-c1ncc(CN(C)Cc2ccncc2C)cn1`, the “% Inhibition” value was -18% and the Z score was determined as 2.66.

On to `COCCN1CC2(CCN(C(=O)c3ccccc3Cl)CC2)[C@H]1c1ccncc1`, for which the “% Inhibition” value is recorded as -3% and the Z score was 0.57.

On to `Cc1n[nH]c(=O)c2c1cnn2-c1ccc(F)cc1`, for which the “% Inhibition” value is on record as 20% and the Z score is listed as -2.53.

With `CC(C)Oc1cc(NC(=O)NCc2noc3c2COCC3)ccn1`, the “% Inhibition” value was found to be 2% and the Z score is recorded as -0.35.

For `CC(C)[C@H](NS(=O)(=O)c1ccc(-c2cc(C(F)(F)F)[nH]n2)o1)c1nccn1C`, the “% Inhibition” value is reported as -10% and the Z score is listed as 1.38.

On to `Cc1nnc(CC2CCN(C(=O)c3ccc4ccccc4n3)CC2)[nH]1`, for which the “% Inhibition” value is recorded as -15% and the Z score was determined as 2.2.

As to `CC(C)n1cc(NC(=O)NCc2cnn3cccnc23)nn1`, the “% Inhibition” value is -10% and the Z score turned out to be 1.55.

As for `O=C(Nc1ccc(N2CCCCC2)cn1)c1cnccn1`, the “% Inhibition” value is reported as -7% and the Z score is recorded as 1.11.

As for `Cc1ccc([C@@H](C)CCN2CCC3(CCC(=O)N(CCc4c[nH]cn4)C3)CC2)o1`, the “% Inhibition” value is reported as -16% and the Z score was found to be 2.11.

As for `Nc1c(F)cc(Cl)cc1C(=O)NCc1ccn2ccnc2c1`, the “% Inhibition” value came out at 8% and the Z score is -0.75.

For `CC1CCCN(C(=O)C(Cc2ccccc2)NC(=O)c2ccccc2)C1` (configuration not stated), the “% Inhibition” value is listed as 0% and the Z score came to 0.03.

Take `Cc1ccc(CN(C(=O)N[C@@H](C)c2ncnn2C)C2CCCC2)s1`: the “% Inhibition” value is given as -20% and the Z score worked out at 1.73.

In the case of `O[C@H](Cn1nnc2cc(Cl)c(Cl)cc21)CC(F)(F)F`, the “% Inhibition” value is -8% and the Z score stood at 1.61.

In the case of `O=C1CCCN1CC[C@H]1CCCCN1S(=O)(=O)Cc1ccccc1`, the “% Inhibition” value is reported as -12% and the Z score was 1.5.

Consider `COc1ccccc1CNC(=O)Cn1nc2ccc(-c3ccc(C)c(C)c3)nn2c1=O`, for which the “% Inhibition” value is reported as -13% and the Z score was determined as 1.62.

With `Cc1cc(CN2CCN(CC(=O)Nc3c(C#N)c(C)c(C)n3C[C@H]3CCCO3)CC2)no1`, the “% Inhibition” value is -39% and the Z score came out at 4.59.

Regarding `COc1ccc(CN2CC[C@H](NC(=O)c3cccnc3)[C@@H](O)C2)cc1Cl`, the “% Inhibition” value is on record as -4% and the Z score stood at 0.85.

For the compound `Nc1nccnc1C(=O)Nc1ccc2c(c1)CCC2`, the “% Inhibition” value was -7% and the Z score is recorded as 1.43.

`CNC(=O)c1noc(CNC(=O)[C@@H]2CCCN2C(=O)C2CCCCC2)n1`: the “% Inhibition” value is reported as -12% and the Z score is listed as 1.81.

For `COc1ccc2[nH]c(CN3CCCC[C@H](N(C)C)C3)c(C)c2c1`, the “% Inhibition” value is on record as -11% and the Z score was found to be 2.03.

As to `CCOC(=O)N1CCN(C(=O)c2ccc(NS(=O)(=O)c3ccc(C)cc3)cc2)CC1`, the “% Inhibition” value is on record as -5% and the Z score is 0.82.

`CC(C)C[C@H](NC(=O)c1cccn1C1CC1)c1cccnc1`: the “% Inhibition” value is -8% and the Z score came to 0.94.

As to `CN(CCOc1ccccc1)C1CCCCC1S(C)(=O)=O` (configuration not stated), the “% Inhibition” value was -6% and the Z score is 0.72.

For the compound `O=C(C1CCN(S(=O)(=O)c2ccc(Cl)cc2)CC1)N1CC[C@@]2(O)CCCC[C@H]2C1`, the “% Inhibition” value was -13% and the Z score came out at 1.69.

On to `CO[C@@]12CC[C@@H](OCC3CC3)C[C@@H]1N(c1nnc(C)s1)CC2`, for which the “% Inhibition” value is given as 0% and the Z score is 0.06.

`CN1CCN(c2ccc(N3CCC(N4CCCCCC4)CC3)cc2)C1=O`: the “% Inhibition” value is recorded as -8% and the Z score was 1.14.

On to `Cc1cccc(C2c3cc(OC(C)C(=O)NC4CC4)ccc3CCN2C(=O)c2ccccc2)c1` (configuration not stated), for which the “% Inhibition” value came to 28% and the Z score is recorded as -3.17.

For the compound `CC(C)COc1cc(NC(=O)[C@@H]2CCO[C@H]2C2CC2)ncn1`, the “% Inhibition” value is on record as -1% and the Z score turned out to be 0.23.
